# From the supplement of paper PMC4604168 (melanoma cell lines)
# The list shows a part of the results. Most values come without repeats; read them as rough.
# Tested on: UACC62
# Experiment: cell count relative to DMSO control; melanoma cells; higher = more viable cells
# Conditions: library dose: standard library concentration; 72 h; first compound 2 µM
# 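Also: cells treated in 1,536-well plates, then fixed and DAPI-stained, with nuclei counted from automated high-throughput microscope images.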
row,Compound,cell count [%]
1,CCCCCCCCCCCCCCCCCCOP(=O)([O-])OC1CC[N+](C)(C)CC1 [Perifosine] + NC1(c2ccc(-c3nc4ccn5c(=O)[nH]nc5c4cc3-c3ccccc3)cc2)CCC1 [MK2206] (partner dose 2 µM),75.6
2,CCCCCCCCCCCCCCCCCCOP(=O)([O-])OC1CC[N+](C)(C)CC1 [Perifosine] + O=c1[nH]nc(Sc2ncc([N+](=O)[O-])s2)n1-c1ccc2c(c1)OCCO2 [BI78D3] (partner dose 1 µM),68.4
3,C[C@@H](N)c1ccc(C(=O)Nc2ccnc3[nH]ccc23)cc1 + NC1(c2ccc(-c3nc4ccn5c(=O)[nH]nc5c4cc3-c3ccccc3)cc2)CCC1 [MK2206] (partner dose 2 µM),66.6
4,CCCCCCCCCCCCCCCCCCOP(=O)([O-])OC1CC[N+](C)(C)CC1 [Perifosine] + Cc1cn(-c2cc(NC(=O)c3ccc(C)c(Nc4nccc(-c5cccnc5)n4)c3)cc(C(F)(F)F)c2)cn1 [nilotinib] (partner dose 1 µM),118
5,Cn1sc(=O)n(Cc2ccccc2)c1=O + CN(c1ncccc1CNc1nc(Nc2ccc3c(c2)CC(=O)N3)ncc1C(F)(F)F)S(C)(=O)=O [PF562271] (partner dose 0.4 µM),81.2
6,C[C@@H](N)c1ccc(C(=O)Nc2ccnc3[nH]ccc23)cc1 + C=C(c1ccc(C(=O)O)cc1)c1cc2c(cc1C)C(C)(C)CCC2(C)C [Bexarotene] (partner dose 10 µM),84.1
7,CCCCCCCCCCCCCCCCCCOP(=O)([O-])OC1CC[N+](C)(C)CC1 [Perifosine] + Cc1cc(Nc2cc(N3CCN(C)CC3)nc(/C=C/c3ccccc3)n2)n[nH]1 [ENMD2076] (partner dose 0.2 µM),54
8,C[C@@H](N)c1ccc(C(=O)Nc2ccnc3[nH]ccc23)cc1 + CN(NC(=O)CC(=O)NN(C)C(=S)c1ccccc1)C(=S)c1ccccc1 [STA4783] (partner dose 0.03 µM),44.2
9,Cn1sc(=O)n(Cc2ccccc2)c1=O + COc1cc(Nc2ncc(F)c(Nc3ccc4c(n3)NC(=O)C(C)(C)O4)n2)cc(OC)c1OC [Tamatinib] (partner dose 2 µM),74.5
10,CCCCCCCCCCCCCCCCCCOP(=O)([O-])OC1CC[N+](C)(C)CC1 [Perifosine] + OCc1c[nH]c2ccccc12 [Indole-3-carbinol] (partner dose 4 µM),77.2
11,C[C@@H](N)c1ccc(C(=O)Nc2ccnc3[nH]ccc23)cc1 + CS(=O)(=O)CCNCc1ccc(-c2ccc3ncnc(Nc4ccc(OCc5cccc(F)c5)c(Cl)c4)c3c2)o1 [lapatinib] (partner dose 4 µM),68.1
12,Cn1sc(=O)n(Cc2ccccc2)c1=O + O=C(O)c1ccc(-c2c[nH]c3ncc(-c4ccccc4)cc23)cc1C1CCCC1 [GSK650394] (partner dose 0.8 µM),90
13,Cn1sc(=O)n(Cc2ccccc2)c1=O + Cn1nnc2c(C(N)=O)ncn2c1=O [temozolomide] (partner dose 10 µM),75

# Tested on: WM115
# Experiment: as above
# Conditions: library dose: standard library concentration; 72 h; first compound 2 µM
row,Compound,cell count [%]
1,C[C@@H](N)c1ccc(C(=O)Nc2ccnc3[nH]ccc23)cc1 + CO[C@@H]1[C@H](N(C)C(=O)c2ccccc2)C[C@H]2O[C@]1(C)n1c3ccccc3c3c4c(c5c6ccccc6n2c5c31)C(=O)NC4 [Midostaurin] (partner dose 0.4 µM),56.2
2,Cn1sc(=O)n(Cc2ccccc2)c1=O + Nc1cccc2c1CN(C1CCC(=O)NC1=O)C2=O [lenalidomide] (partner dose 5 µM),108
3,Cn1sc(=O)n(Cc2ccccc2)c1=O + COc1cc2c(Oc3ccc4[nH]c(C)cc4c3F)ncnc2cc1OCCCN1CCCC1 [cediranib] (partner dose 2 µM),68.2
4,C[C@@H](N)c1ccc(C(=O)Nc2ccnc3[nH]ccc23)cc1 + Cn1sc(=O)n(Cc2ccccc2)c1=O [TDZD-8] (partner dose 2 µM),92.2
5,C[C@@H](N)c1ccc(C(=O)Nc2ccnc3[nH]ccc23)cc1 + CC(C)C[C@H](NC(=O)[C@H](Cc1ccccc1)NC(=O)c1cnccn1)B(O)O [Bortezomib] (partner dose 0.005 µM),24.6
6,CCCCCCCCCCCCCCCCCCOP(=O)([O-])OC1CC[N+](C)(C)CC1 [Perifosine] + C#Cc1cccc(Nc2ncnc3cc(OCCOC)c(OCCOC)cc23)c1 [erlotinib] (partner dose 4 µM),63.1
7,Cn1sc(=O)n(Cc2ccccc2)c1=O + CNC(=O)c1cc(Oc2ccc(NC(=O)Nc3ccc(Cl)c(C(F)(F)F)c3)cc2)ccn1 [sorafenib] (partner dose 2 µM),115
8,CCCCCCCCCCCCCCCCCCOP(=O)([O-])OC1CC[N+](C)(C)CC1 [Perifosine] + C[C@]1(c2nc3c(C(N)=O)cccc3[nH]2)CCCN1 [Veliparib] (partner dose 7 µM),85.3
9,Cn1sc(=O)n(Cc2ccccc2)c1=O + Cc1cc(Nc2cc(N3CCN(C)CC3)nc(/C=C/c3ccccc3)n2)n[nH]1 [ENMD2076] (partner dose 0.2 µM),82.2
10,CCCCCCCCCCCCCCCCCCOP(=O)([O-])OC1CC[N+](C)(C)CC1 [Perifosine] + COc1ccc(C2=N[C@@H](c3ccc(Cl)cc3)[C@@H](c3ccc(Cl)cc3)N2C(=O)N2CCNC(=O)C2)c(OC(C)C)c1 [Nutlin-3] (partner dose 0.5 µM),89.5
11,Cn1sc(=O)n(Cc2ccccc2)c1=O + Cn1c(=O)n(-c2ccc(C(C)(C)C#N)cc2)c2c3cc(-c4cnc5ccccc5c4)ccc3ncc21 [NVP-BEZ235] (partner dose 0.02 µM),77.7
12,C[C@@H](N)c1ccc(C(=O)Nc2ccnc3[nH]ccc23)cc1 + Nc1nc(F)nc2c1ncn2[C@@H]1O[C@H](CO)[C@@H](O)[C@@H]1O [fludarabine] (partner dose 1 µM),120
13,C[C@@H](N)c1ccc(C(=O)Nc2ccnc3[nH]ccc23)cc1 + O=C(Nc1cccc(Cl)c1)Nc1ncc(CCNc2ncnc3ccsc23)s1 [SNS314] (partner dose 0.004 µM),53.5
14,Cn1sc(=O)n(Cc2ccccc2)c1=O + O=C(O)c1ccc2c(c1)nc(Nc1cccc(Cl)c1)c1ccncc12 [CX4945] (partner dose 2 µM),109
15,Cn1sc(=O)n(Cc2ccccc2)c1=O + COc1ccc(Cl)c(Nc2nc3ccccc3nc2NS(=O)(=O)c2cccc(NC(=O)C(C)(C)N)c2)c1 [XL147] (partner dose 4 µM),107
16,CCCCCCCCCCCCCCCCCCOP(=O)([O-])OC1CC[N+](C)(C)CC1 [Perifosine] + Cn1nnc2c(C(N)=O)ncn2c1=O [temozolomide] (partner dose 10 µM),83.5
17,CCCCCCCCCCCCCCCCCCOP(=O)([O-])OC1CC[N+](C)(C)CC1 [Perifosine] + Clc1ccc(Nc2nnc(Cc3ccncc3)c3ccccc23)cc1 [vatalanib] (partner dose 10 µM),114
18,C[C@@H](N)c1ccc(C(=O)Nc2ccnc3[nH]ccc23)cc1 + COc1cc(Nc2ncc(F)c(Nc3ccc4c(n3)NC(=O)C(C)(C)O4)n2)cc(OC)c1OC [Tamatinib] (partner dose 2 µM),79.1
19,C[C@@H](N)c1ccc(C(=O)Nc2ccnc3[nH]ccc23)cc1 + COc1cc2c(Oc3ccc4[nH]c(C)cc4c3F)ncnc2cc1OCCCN1CCCC1 [cediranib] (partner dose 2 µM),72.3
20,C[C@@H](N)c1ccc(C(=O)Nc2ccnc3[nH]ccc23)cc1 + CCCCCCCCc1ccc(CCC(N)(CO)CO)cc1 [fingolimod] (partner dose 10 µM),9.74
21,Cn1sc(=O)n(Cc2ccccc2)c1=O + C[C@]1(O)C[C@@H](c2nc(-c3ccc4ccc(-c5ccccc5)nc4c3)c3c(N)nccn32)C1 [OSI906] (partner dose 2 µM),106
22,Cn1sc(=O)n(Cc2ccccc2)c1=O + NC(=O)c1ccc(N(C(N)=O)c2c(F)cccc2F)nc1-c1ccc(F)cc1F [VX702] (partner dose 2 µM),89.7
23,C[C@@H](N)c1ccc(C(=O)Nc2ccnc3[nH]ccc23)cc1 + Cn1cnc2c(F)c(Nc3ccc(Br)cc3Cl)c(C(=O)NOCCO)cc21 [selumetinib] (partner dose 0.075 µM),72.1
24,CCCCCCCCCCCCCCCCCCOP(=O)([O-])OC1CC[N+](C)(C)CC1 [Perifosine] + CC(C)C[C@H](NC(=O)[C@H](Cc1ccccc1)NC(=O)c1cnccn1)B(O)O [Bortezomib] (partner dose 0.005 µM),19.4
25,C[C@@H](N)c1ccc(C(=O)Nc2ccnc3[nH]ccc23)cc1 + CNC(=O)c1cc(Oc2ccc(NC(=O)Nc3ccc(Cl)c(C(F)(F)F)c3)cc2)ccn1 [sorafenib] (partner dose 2 µM),78.1
26,CCCCCCCCCCCCCCCCCCOP(=O)([O-])OC1CC[N+](C)(C)CC1 [Perifosine] + C[C@]1(O)C[C@@H](c2nc(-c3ccc4ccc(-c5ccccc5)nc4c3)c3c(N)nccn32)C1 [OSI906] (partner dose 2 µM),99.7
27,CCCCCCCCCCCCCCCCCCOP(=O)([O-])OC1CC[N+](C)(C)CC1 [Perifosine] + NC1(c2ccc(-c3nc4ccn5c(=O)[nH]nc5c4cc3-c3ccccc3)cc2)CCC1 [MK2206] (partner dose 2 µM),65.4
28,CCCCCCCCCCCCCCCCCCOP(=O)([O-])OC1CC[N+](C)(C)CC1 [Perifosine] + O=c1[nH]nc(Sc2ncc([N+](=O)[O-])s2)n1-c1ccc2c(c1)OCCO2 [BI78D3] (partner dose 1 µM),110
